From PubChem BioAssay AID1240 (Sanford-Burnham Center for Chemical Genomics, 2008)
The campaign covered roughly 50,000 compounds. About 800 (1.6%) showed an effect of 50% or more. This is one part of the list.

What follows are compounds tested against Bcl-2-like protein 10 (Homo sapiens) (UniProt Q9HD36) (assay: TR3 peptide-Bcl-B binding displacers, biochemical primary FP assay, phenotype converters (AID 1240;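 note: 0% = Bcl-B with tracer peptide and DMSO and 100% = tracer peptide lacking Bcl-B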)). Conditions: GST-Bcl-B / FITC-TR3 peptide fluorescence polarization; stronger effect = higher value; compound at 3.75 mg/L.
Chain of UniProt Q9HD36 (Q9HD36 whole entry, looked up): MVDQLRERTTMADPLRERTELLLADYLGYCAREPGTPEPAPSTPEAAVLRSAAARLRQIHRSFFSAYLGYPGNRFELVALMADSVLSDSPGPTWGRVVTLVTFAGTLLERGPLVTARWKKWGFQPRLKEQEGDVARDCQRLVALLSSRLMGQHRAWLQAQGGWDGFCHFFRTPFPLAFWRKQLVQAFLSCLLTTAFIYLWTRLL
Work on `CCC(C)(C)C1CCc2c(sc(NC(=O)c3ccccc3Br)c2C(N)=O)C1` (centres undefined) yielded a displacement of 0%. Work on `Nc1cc(-c2ccc(Br)cc2)nn1-c1ccccc1` yielded a displacement of -2.7%. Work on `COc1ccc(CSCC(=O)O)cc1C(=O)O` yielded a displacement of -8.5%. With `Cc1cccc(/C=C2\C(=O)NN(c3ccccc3)C2=O)c1` the displacement was 17.6%. `O=C(Nc1ccc(OC(F)(F)F)cc1)c1cccnc1` was tested, and the displacement was -2.9%. With `Cc1cc(C(=O)COC(=O)c2ccc3c(c2)OCCO3)ccc1Br` the displacement was -14.8%. With `COc1ccc(/C=C(/NC(=O)c2ccccc2Cl)C(=O)O)cc1` the displacement was -4.9%. With `Cc1ccc(C2=CC(c3ccccc3)=N/C(=C(\C#N)C(N)=O)N2)cc1` the displacement was -2.5%. With `N/C(=C\C(=O)/C=C\c1ccccc1)C(Cl)(Cl)Cl` the displacement was -14.3%. `O=C(COc1ccc(Cl)cc1Br)N/N=C/c1cccc(OC(=O)c2ccc3c(c2)OCO3)c1` showed a displacement of 11.8%. `CCCCCC(=O)NNC(=O)Cc1ccc(OC)cc1` was tested, and the displacement was -3.2%. For `O=C(COc1ccc(Cl)cc1)N1CCN(C(=O)c2ccc(-c3ccccc3)cc2)CC1`, the displacement was -20.5%. Work on `COC(=O)CN1C(CN2CCOCC2)=Nc2ccc(Br)cc2C1c1ccccc1` (centres undefined) yielded a displacement of -3.3%. For `C#Cc1cccc(N2C(=O)c3ccc(C(=O)O)cc3C2=O)c1`, the displacement was 3.3%. Compound `CC(=O)C1=C(O)C(=O)N(CCN(C)C)C1c1cccc(F)c1` (centres undefined) has a displacement of -9.1%. With `O=c1oc(-c2cccs2)nc2ccc(Cl)cc12` the displacement was -1.3%. `O=C(Nc1ccccc1)c1ccccc1NC(=O)c1ccccc1[N+](=O)[O-]` gave a displacement of -11.5%. In the case of `O=C(/C=C/c1ccccc1)Nc1ccc2ccccc2n1`, the displacement is reported as -1.1%. `COc1cc(C(=O)Nc2ccc(C(=O)O)cc2)c2ccccc2n1` showed a displacement of -0.3%. `COc1ccc(-c2cc(C(=O)Nc3ccccc3I)c3ccccc3n2)cc1` gave a displacement of -9.5%. Compound `O=C1CC(c2ccccc2)CC2=C1C(c1ccccn1)Nc1ccccc1N2` (centres undefined) has a displacement of -0.9%. `Cc1ccc(C(=O)N(C)C2CCCCC2)cc1[N+](=O)[O-]` showed a displacement of 2.8%. `COc1cccc(OC)c1OCCCCOc1c(OC)cccc1OC` was tested, and the displacement was 16.4%. With `Cc1oc(C(=O)O)cc1CSC(C)C(=O)O` (centres undefined) the displacement was 8.5%. Compound `COc1ccc(/C=C2N=C(/C=C/c3ccccc3)OC/2=O)cc1` has a displacement of 88.6%. In the case of `COc1cc(/C=C/c2ccc([N+](=O)[O-])cc2[N+](=O)[O-])ccc1O`, the displacement is reported as 2.3%. `COC(=O)c1ccccc1NC(=O)COc1ccc(Cl)c(C)c1` was tested, and the displacement was -0.4%. With `O=S(=O)(c1ccccc1)N1CCN(Cc2ccccn2)CC1` the displacement was 13.4%. Compound `O=Cc1ccc2c3c(onc13)-c1ccccc1C2=O` has a displacement of 10.6%. In the case of `CCN(CC)c1ccc(/C=N/c2nc(-c3ccccc3)c(C)s2)cc1`, the displacement is reported as 4.4%. With `OCc1c(O)cnc2ccccc12` the displacement was 19.4%. With `COc1ccc(CSc2nc3ccccc3o2)cc1` the displacement was 4.1%. Compound `Cc1ccc(-n2c(O)c(/C=C3\C=Nc4ccccc43)c(=O)[nH]c2=S)cc1` has a displacement of -0.7%. `C/C(=N\NC(=O)CN(c1cc(C)ccc1C)S(=O)(=O)c1ccccc1)c1cccs1` gave a displacement of 6.3%. For `CC(NC(=O)CSc1nc2ccc(N3C(=O)c4ccccc4C3=O)cc2s1)c1ccccc1` (centres undefined), the displacement was 17.1%. With `CN(C)c1ccc(C=Nn2cnnc2)cc1` the displacement was -7.2%. In the case of `O=C(Nc1ccc(-c2cnc(-c3ccc(NC(=O)c4ccccc4)cc3)nc2)cc1)c1ccccc1`, the displacement is reported as -4.4%. Work on `Cc1ccc(N2C(=O)C(Cl)=C(N3CCN(C)CC3)C2=O)cc1` yielded a displacement of 16.9%. In the case of `CC(=O)Nc1ccc(S(=O)(=O)NCc2ccccc2C)cc1`, the displacement is reported as 0%. `O=C(COc1ccc(Cl)cc1)Oc1ccc2c(c1)oc(=O)c1ccccc12` was tested, and the displacement was 10%. With `CC(=O)NCCOc1ccccc1Oc1ccccc1` the displacement was -11.5%. With `C=CCc1cc(/C=C2\C(=O)NC(=O)N(c3ccc(Cl)cc3)C2=O)cc(OC)c1O` the displacement was -4%. In the case of `Cc1ccc(/C=C2/C=C(c3ccccc3)OC2=O)cc1`, the displacement is reported as 1.9%. With `Cc1cc(OCC(=O)NN)ccc1Cl` the displacement was 6.3%. `O=C(O)c1ccccc1SCc1ccc2c(c1)OCO2` gave a displacement of 2.8%. Work on `COc1ccc(N2C(=O)NC(=O)/C(=C/c3ccc(-c4ccc([N+](=O)[O-])cc4Cl)o3)C2=O)cc1` yielded a displacement of 20.3%. In the case of `CCOc1nc(OCC)c(C=O)c(OCC)n1`, the displacement is reported as -0.7%. With `Cc1ccc(C2CC(=O)Nc3c2cc(Br)c2ccccc32)cc1[N+](=O)[O-]` (centres undefined) the displacement was 1.7%. `CCOc1ccc(NC(=O)c2ccoc2C)cc1` showed a displacement of 0.6%. For `Cc1ccc(C(=O)NCCN(C)C)cc1[N+](=O)[O-]`, the displacement was 3.4%. `COc1cc(OC)cc(C(=O)Nc2ccc(OC)c(OC)c2)c1` gave a displacement of -7.7%. Compound `COc1cc(C(=S)N2CCOCC2)cc(OC)c1OC(=O)c1cccc([N+](=O)[O-])c1` has a displacement of 70.4%. With `CSc1nc2sc3c(c2c(=O)n1C)CCC3` the displacement was -6.5%. Compound `CCN1C(=O)/C(=C\c2ccc(O)c(OC)c2)SC1=S` has a displacement of -3.9%. `COc1ccc(N2C(=O)NC(=O)/C(=C/c3cc4c(cc3Br)OCO4)C2=O)cc1` showed a displacement of -12.7%. In the case of `O=C1C=CC(=O)N1c1ccc(Br)cc1[N+](=O)[O-]`, the displacement is reported as 11.7%. In the case of `O=C(CN1C(=O)c2ccccc2C1=O)NC(c1ccccc1)c1ccccc1`, the displacement is reported as 9.6%. `COC(=O)C(=C/C=C/N(C(C)C)C(C)C)C(=O)OC` was tested, and the displacement was 8.5%. For `CN(C)CCNC(=O)c1ccc(I)cc1`, the displacement was 6%. `CCCc1c(C)c2cccc(C)c2[nH]c1=O` was tested, and the displacement was -9.7%. `C(=N/N1CCN(c2ccccc2)CC1)/c1ccccn1` showed a displacement of 4.6%. `CN1C(=O)c2ccc(S(=O)(=O)c3ccc(C(=O)O)cc3)cc2C1=O` gave a displacement of -12.7%. Work on `N#C/C(=C(/O)c1ccc(Cl)cc1Cl)c1nc2ccccc2[nH]1` yielded a displacement of -21.5%. With `Cc1ccc(OCC(=O)Nc2ccccc2C(N)=O)c(Br)c1` the displacement was -3.3%. With `CCOC(=O)c1ccc(N2C(=O)NC(=O)/C(=C/c3ccc(OC)c(OC)c3)C2=O)cc1` the displacement was -4.2%. In the case of `Cc1ccc(OCCSc2nc3ccccc3n2CCO)cc1`, the displacement is reported as 0.7%. In the case of `CS(=O)(=O)N1CCN(Cc2ccncc2)CC1`, the displacement is reported as 13.2%. Compound `O=C1c2ccccc2C(=O)N1c1ccc(O)cc1` has a displacement of 5.2%. Work on `CCOC(=O)c1c(NC(=O)c2cc3ccccc3oc2=O)sc(C(=O)CC)c1C` yielded a displacement of 3%. `O=C1CC(N2CCN(c3ccc([N+](=O)[O-])cc3)CC2)C(=O)N1c1ccc(F)cc1` (centres undefined) showed a displacement of 5.1%. With `CCC1(C)CC(CC#N)(c2ccccc2OC)CCO1` (centres undefined) the displacement was -1.1%. `O=C(Nc1ccc2oc(-c3ccncc3)nc2c1)c1ccncc1` showed a displacement of 28.9%. `Cc1cc(NC(=O)c2ccc(Cl)cc2[N+](=O)[O-])no1` gave a displacement of -8.9%. Work on `Nc1nc(SCCc2ccccc2)nc2sc3c(c12)CCC3` yielded a displacement of 8.1%. `CCOC(=O)c1c(N=CN(C)C)c(C#N)n2c1CCC2` gave a displacement of -13.1%. With `CC(/C=C/c1ccco1)=N\NC(=O)c1cccc(F)c1` the displacement was -5.1%. In the case of `COc1cc(/C=N/NC(N)=O)ccc1Oc1nc(Nc2ccc(C)cc2Br)nc(N2CCOCC2)n1`, the displacement is reported as 0.9%. With `CC(=O)c1sc(NC(=O)c2ccc3c(c2)OCO3)nc1C` the displacement was 5.6%. For `CC(C)(C)c1ccc(/C=C/C(=O)Nc2ccccc2C(N)=O)cc1`, the displacement was -5.6%. For `COc1ccc(C2Nc3ccccc3C(=O)N2Cc2ccco2)cc1` (centres undefined), the displacement was 6%. `Cc1ccc(C(C)C)c(OCC(=O)Nc2ccc(NC(=O)c3ccccc3Cl)cc2)c1` showed a displacement of -2.1%. For `O=[N+]([O-])c1ccc(CNCC2(c3ccccc3)CCCC2)cc1`, the displacement was 6.8%. Compound `O=C(CC1Sc2ccc(C(F)(F)F)cc2NC1=O)Nc1ccc(N2CCOCC2)cc1` (centres undefined) has a displacement of 2.2%. Work on `CCOC(=O)CSCCOc1ccc(C=C2C(=O)NC(=S)NC2=O)cc1OC` yielded a displacement of 10.5%. For `COc1cc(/C=C(\C#N)C(N)=S)ccc1OCc1ccccc1`, the displacement was -8.7%. For `O=C(N/N=C/C(Br)=C/c1ccccc1)c1cc(C2CC2)[nH]n1`, the displacement was -3.3%. Work on `COc1c(O)ccc(/C=N\NC(=O)c2ccc(Br)cc2)c1[N+](=O)[O-]` yielded a displacement of 10.5%. Compound `C/C(=N/NC(=O)c1ccoc1C)c1cccc(NC(=O)c2ccc(Cl)cc2Cl)c1` has a displacement of -6.1%. Work on `Cc1ccc(Cl)c(OCCCN2CCOCC2)c1` yielded a displacement of -3.5%. `Cc1onc(-c2ccccc2Cl)c1C(=O)N1CCN(Cc2ccccc2)CC1` gave a displacement of 11.1%. In the case of `COc1ccc(-c2c(Cc3ccccc3)nn(-c3ccccc3)c2N)cc1OC`, the displacement is reported as -28.8%. With `Fc1cccc(-c2nnc3ccc(C(F)(F)F)cn23)c1` the displacement was -17%. `C(=N\n1cnnc1)/c1cccc(OCCOc2ccccc2)c1` gave a displacement of -2.4%. Work on `COc1cc(O)cc(Br)c1/C=N/Nc1nc2ccccc2s1` yielded a displacement of -3.6%. Work on `O=C(CCc1ccccc1)Nc1ccccc1C(=O)Nc1ccccc1` yielded a displacement of -14.9%. `COc1cccc(CN2CCN(C(=O)c3ccco3)CC2)c1OC` showed a displacement of -3.2%. `CCOC(=O)c1c(NC(=O)CC2Sc3ccccc3NC2=O)sc(C)c1C` (centres undefined) gave a displacement of -4.1%. In the case of `O=C1CC(c2ccccc2)CC(O)=C1C=NCCO` (centres undefined), the displacement is reported as 35.3%. `CCc1cc(=O)oc2cc(OCC(N)=O)ccc12` was tested, and the displacement was 1.3%. In the case of `CC(=O)Nc1cccc(/C(C)=N/N=C2/NC(=O)C(CC(=O)Nc3ccc(C)c(Cl)c3)S2)c1` (centres undefined), the displacement is reported as -1.5%. With `N#Cc1ccccc1NS(=O)(=O)c1ccccc1[N+](=O)[O-]` the displacement was 16.4%. Work on `O=C(Nc1ccc(OC(F)(F)F)cc1)c1cccc([N+](=O)[O-])c1` yielded a displacement of -1.6%. In the case of `CC1(C)CC(=O)C2=C(C1)Nc1ccccc1NC2c1coc2ccccc2c1=O` (centres undefined), the displacement is reported as -1.1%. For `O=c1c2ccccc2nc(SCc2ccc(Cl)cc2)n1-c1ccccc1`, the displacement was -13%. Work on `COc1ccc2c(c1OC)C(=O)OC2Nc1ccc(C(C)=O)cc1` (centres undefined) yielded a displacement of 4.1%. `CN(C)CC1C(=O)N(c2ccccc2)N(c2ccccc2)C1=O` was tested, and the displacement was 15.9%. With `CN(C)/C=C1\N=C(c2ccc([N+](=O)[O-])cc2)OC1=O` the displacement was -20.8%. With `Cc1ccc(Cl)cc1NC(=O)C(=O)NCCc1ccccc1` the displacement was -13.4%. `CCN1CCN(S(=O)(=O)Cc2ccccc2)CC1` gave a displacement of 4.5%. Work on `Cc1cc(C)c(NC(=O)C(C)Sc2nnc(-c3cccc(F)c3)n2-c2ccccc2)c(C)c1` (centres undefined) yielded a displacement of -9.2%. Work on `O=C1C2ON(c3ccccc3)C(c3ccccn3)C2C(=O)N1c1cccc(C(F)(F)F)c1` (centres undefined) yielded a displacement of -0.9%. In the case of `O=C1c2ccc3c4c(ccc(c24)C(=O)N1CCc1ccc(Cl)cc1)CC3`, the displacement is reported as 7.5%. For `Cc1cc(Cl)ccc1OCC(=O)Nc1ccc(I)cc1Cl`, the displacement was -1.2%. In the case of `Cc1ccc2c(c1)NC(c1ccc(F)cc1)C1=C(CC(c3ccccc3)CC1=O)N2` (centres undefined), the displacement is reported as -0.3%.
